# Assay results from PubChem BioAssay AID1346428 (National Center for Advancing Translational Sciences (NCATS), 2018).
# Values joined by “and” are separate entries in the source; they are usually repeats but may differ in a detail not shown here. Equal entries are not always repeated. Screen size: about 48,000 compounds; about 1,200 (2.5%) were called active. Roughly 2% stayed inconclusive and do not appear here.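 The calls were made as follows: active = activation of at least 60% and not above a set upper limit (about 1 call in 100 departs from these limits); inconclusive = activation of 40% to 60%, or above that upper limit; inactive = activation under 40%.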 The list shows a part of the results.
# Biological target: Probable G-protein coupled receptor 32 (Homo sapiens) (UniProt O75388)
# Assay: qHTS for Agonists of Human Resolvin D1 Receptor DRV1; also: 0% is about no effect
# Details: CHO-K1 GPR32 beta-arrestin PathHunter luminescence, 90 min; at 76.9 µM; stronger effect = higher value; zero percent set by DMSO-only wells
# Outline: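 Step 1: seed CHO-K1 GPR32 beta-arrestin cells, 2,500/well, overnight at 37 °C. Step 2: add compounds, 90 min at 37 °C. Step 3: detection reagent, 1 h ambient, then luminescence.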
# Sequence of UniProt O75388 (O75388 whole entry, looked up): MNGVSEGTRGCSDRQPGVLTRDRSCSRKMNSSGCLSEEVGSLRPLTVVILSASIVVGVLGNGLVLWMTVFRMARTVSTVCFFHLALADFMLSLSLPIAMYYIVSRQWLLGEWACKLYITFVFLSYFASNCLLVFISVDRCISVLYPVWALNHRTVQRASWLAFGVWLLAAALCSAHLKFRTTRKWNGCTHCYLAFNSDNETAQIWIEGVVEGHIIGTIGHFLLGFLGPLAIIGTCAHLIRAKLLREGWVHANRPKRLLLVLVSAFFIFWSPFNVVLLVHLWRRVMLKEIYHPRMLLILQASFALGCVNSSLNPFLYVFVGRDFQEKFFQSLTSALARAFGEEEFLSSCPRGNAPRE
row,Compound,activation
1,COc1ccc(CN2CCNCC2)c(OC)c1OC,inactive: -7.61%
2,COc1ccc2c(c1)c(CCN1CCOCC1)c(C)n2C(=O)c1cccc(Cl)c1Cl,inactive: -30.2%
3,CCCN(CCC)CCc1c[nH]c2ccc(C(N)=O)cc12,inactive: -4.56%
4,CC(C)(N)Cc1ccc(Cl)cc1,inactive: -6.76%
5,COc1ccc(C)cc1NC(=O)c1cccn(Cc2cccc([N+](=O)[O-])c2)c1=O,inactive: -6.1%
6,COCCOCCO,inactive: -25.1%
7,c1ccc2c(N3CCNCC3)cccc2c1,inactive: -13%
8,Cc1ccc(-n2c(/C=C/c3cccs3)nc3ccccc3c2=O)cc1C,inactive: -29.3%
9,COc1cccc(/C=C/c2nc3ccccc3c(=O)n2-c2ccc(Cl)cc2)c1OC,inactive: -20.6%
10,O=C(N[C@H]1CN2CCC1CC2)c1ccc(Cl)cc1,inactive: -5.71%
11,O=[N+]([O-])c1ccc2nc(N3CCNCC3)ccc2c1,inactive: -7.6%
12,CCCC12CN3CC(CCC)(CN(C1)C3c1ccccn1)C2=O (configuration not stated),inactive: -2.59%
13,C[C@]12C=CC(=O)C=C1CC[C@@H]1[C@@H]2CC[C@@]2(C)[C@H]1CC[C@]2(C)O,inactive: -0.0299%
14,C[C@]12CC[C@H]3[C@@H](CCC4=CC(=O)CC[C@@H]43)[C@@H]1CC[C@@H]2O,inactive: -2.63%
15,COc1cc(CC(C)N)c(OC)cc1Br (configuration not stated),inactive: -24.6%
16,COc1ccc(OCC(=O)N2CCN(CCc3ccccn3)CC2)cc1,inactive: 19.9%
17,C[N+]1(C)C2CCC1CC(OC(=O)C(CO)c1ccccc1)C2 (configuration not stated),inactive: 8.09% and inactive: 1.77%
18,O=c1c2ccccc2[se]n1-c1ccccc1,inactive: -3.32%
19,CCCN(CCC)C1Cc2cc(OC)c(OC)cc2C1,inactive: -2.67%
20,Clc1ccccc1N1CCNCC1,inactive: -3.8%
21,CC(C)c1ccc(NC(=O)CN2C(=O)CN=C(c3ccccc3)c3ccccc32)cc1,inactive: -4.39%
22,C[C@]12CC[C@H]3[C@@H](CC=C4C[C@@H](O)CC[C@@]43C)[C@@H]1CC[C@@H]2O,inactive: 9.7%
23,CC(C)(C)C(O)C(Oc1ccc(Cl)cc1)n1cncn1 (configuration not stated),inactive: -48.1%
24,c1ccc2c(c1)Nc1ccccc1S2,inactive: 41.1% and inactive: -14.5%
25,Cc1cccc(CN2C(=O)CN=C(c3ccccc3)c3cc(Cl)ccc32)c1,inactive: -11.9%
26,CN(C)CCc1c[nH]c2cccc(O)c12,inactive: 0.604%
27,CCCc1ccc(OCC(=O)Nc2ccc(Cl)cc2C(=O)c2ccccc2)cc1,inactive: -7.11%
